Data as given in PubChem BioAssay AID493208 (National Center for Advancing Translational Sciences (NCATS), 2011).
Among all 44,000 compounds or so, about 340 (0.77%) were called active. Another 5% or so got no clear call; they are omitted. The call rests on the fitted dose curve; in most records, active means well fitted inhibition curve with a large enough effect; inconclusive means small, poorly fitted or top-dose-only effect; inactive means flat fitted curve, though single readings scatter. The list shows a part of the results.

Test: Acumen qHTS Assay for Inhibitors of the mTORC1 Signaling Pathway in MEF (Tsc2-/-, p53-/-) Cells: Sytravon;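 further: plate controls were DMSO for no effect and rapamycin for full effect; nearly all actives have a fitted effect of over 50% in size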
Conditions: phospho-rpS6 immunofluorescence/PI, 24 h; series mostly up to 38.3 µM; activity change, negative = inhibition: at the top concentration
Method in brief: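 Compounds act on Tsc2-/-, p53-/- fibroblasts carrying an empty vector for 24 h before fixation and dual staining for phospho-S6 and DNA (propidium iodide). Values are percentages of cells above a rapamycin-defined pS6/PI threshold.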

Activity change, negative = inhibition, inactive:
Cc1c(Cl)cccc1NC(=O)CCn1nc(C)c2c(C)n(-c3ccccc3)nc2c1=O 0.469%
CCOc1ccc(C(=O)N2CCCCC2CCN2CCOCC2)cc1 (configuration not stated) 2.26%
COc1ccc(NC(=O)c2sc3nc(C)c(C(=O)Nc4ccc(Cl)cc4)c(-c4ccc(Br)cc4)c3c2N)cc1 -4.47%
COC(=O)c1ccccc1NC(=O)Cn1nnc2sc(-c3ccccc3)cc2c1=O -0.237%
CCc1ccc(-c2nn(CC(=O)NC3CCCC3)c3c2cnc2ccc(F)cc23)cc1 0.453%
CCOc1ccccc1NC(=O)NCCn1c(=O)oc2ccc(C)cc21 -0.787%
COc1ccc(-c2nc(-c3ccccc3)c(-c3ccc(O)cc3)[nH]2)cc1 -14.2%
COc1ccccc1C(=O)NCCn1cc(SCc2ccccc2Cl)c2ccccc21 -0.872%
O=C(/C=C/c1ccc(F)cc1)Nc1nc2n(n1)C(c1ccc(Cl)cc1)C=C(c1ccccc1)N2 (configuration not stated) -2.6%
COc1ccc(OC)c(CNC(=O)CCn2c(=O)c3cccn3c3ccc(F)cc32)c1 6.98%
Cc1ccc2sc(N3CCN(C(=O)CCS(=O)(=O)c4ccc(F)cc4)CC3)nc2c1C -7.13%
Cc1noc(/C=C/c2ccco2)c1S(=O)(=O)N1CCC(C(=O)Nc2ccc(F)c(Cl)c2)CC1 -11%
COc1ccc(-n2ncc3c(NCCC4=CCCCC4)ncnc32)cc1 8.14%
Cc1ccccc1-c1nc(CS(=O)(=O)CC(=O)NCc2cccc(Cl)c2)c(C)o1 -9.1%
CCC1=Nc2cc(C(=O)NC3CCCC3)ccc2Sc2ccc(Br)cc21 -25.8%
Cc1ccc(N2CC(C(=O)Nc3ccc(Br)cc3)CC2=O)cc1 (configuration not stated) -3.57%
COc1ccc(C(=O)n2nc(-c3ccco3)nc2NCc2cccs2)cc1 2.49%
C=Cc1ccc(CN2C(=O)N(c3cccc(Cl)c3)S(=O)(=O)c3ccccc32)cc1 0.0426%
Cc1ccc2c(=O)c(C(=O)c3cccc(Cl)c3)cn(CC(=O)NCc3ccc(F)cc3)c2n1 -15%
O=C(NCc1cccc(Cl)c1)C(=O)Nc1ccc2nc3n(c(=O)c2c1)CCCCC3 -8.05%
CCCCN1CCCc2cc(CN(CCCN3CCOCC3)C(=O)Nc3ccc(OCC)cc3)ccc21 -5.74%
COc1cccc(CN2CCc3nc(SCC(=O)Nc4ccccc4)[nH]c(=O)c3C2)c1 -0.098%
COc1ccc(C)cc1Nc1c2c(nc3nc(-c4cccs4)nn13)CCCC2 -11.6%
CCN(CC)S(=O)(=O)c1ccc2c(c1)N(CC(=O)N1CCN(c3ccccc3F)CC1)C(=O)CO2 -2.69%
COc1cc(Nc2nc3ccccc3c3nnc(C)n23)cc(OC)c1 0.469%
Cc1ccc(NC(=O)N2CCc3cc(S(=O)(=O)N4CCC(C)CC4)ccc32)cc1C 3.9%
CC1Cc2cc(S(=O)(=O)NCc3ccccc3Cl)ccc2N1C(=O)C1CCC1 (configuration not stated) -16.3%
CCOC(=O)c1ccc(Nc2ncnc3c2cnn3-c2cccc(Cl)c2)cc1 14.5%
CCN(C(=O)c1cc2c(s1)-c1ccccc1OC2)c1cc(Cl)ccc1OC -9.28%
Cc1ccccc1NS(=O)(=O)c1nnc(NC(=O)c2ccccc2C)s1 7.42%
O=S(=O)(NCCS(=O)(=O)N1CCN(c2ccccc2F)CC1)c1ccc(Cl)cc1 0.725%
COc1ccc(N2CCN(C(=O)CCn3c(=O)c4cccn4c4cccnc43)CC2)cc1 3.15%
CCOC(=O)c1ccc(NC(=O)c2ncn(-c3ccccc3)n2)cc1 8.01%
CCN(CC)c1ccc(C(=O)N2CCC(c3c[nH]c4ccccc34)(c3c[nH]c4ccccc34)CC2)cc1 -4.28%
O=C(NC1CCN(Cc2ccccc2)CC1)c1ccc(Cn2c(=O)c3ccccc3n(Cc3ccccc3)c2=O)cc1 -7.53%
Cc1ccc(-c2nc(-c3cc4cccc(OCc5cccc(C)c5)c4oc3=O)no2)cc1 -1.75%
Cc1ccc(NC(=O)/C(C#N)=C/c2cc(C)n(-c3ccc(F)cc3)c2C)cc1C 3.75%
CCc1ccc(NC(=O)Cn2c3ncccc3c(=O)n2-c2ccc(C)c(C)c2)cc1 0%
O=C(c1ccc2c(c1)N(Cc1ccccc1F)C(=O)c1ccccc1S2=O)N1CCN(c2ccccc2)CC1 (configuration not stated) -3.84%
Cc1ccc(CNC(=O)c2ccc(-n3cnc4cccnc43)cc2)cc1 -0.101%
O=C(NCCc1csc(-c2cccc(F)c2)n1)c1cccs1 -12.7%
O=C(Cc1ccccc1)Nc1sc2c(c1C(=O)Nc1ccc(Cl)cc1)CCCC2 -1.52%
N#C/C(=C\c1ccc(Cl)cc1)c1nc2ccccc2[nH]1 22.3%
Cc1cccc(NC(=O)CSc2nc3c([nH]c4ccccc43)c(=O)n2C)c1C -4.18%
CCOc1ccc(NC(=O)c2ccc(-c3nc(COc4ccccc4)c(C)o3)cc2)cc1 0.636%
COc1ccccc1CNC(=O)Cn1ncc2c3ccccc3n(Cc3ccccc3C)c2c1=O 2.6%
CC(NC(=O)Nc1ccccc1C(F)(F)F)c1c(-n2cccc2)sc2c1CCCC2 (configuration not stated) 1.94%
COc1ccccc1NC(=O)CSc1oc(-c2cccs2)nc1S(=O)(=O)c1ccc(Br)cc1 -12.9%
CCOC(=O)c1ccc(NS(=O)(=O)c2ccc(Br)s2)cc1 2.32%
CN(C(=O)CSc1nc2c(c(=O)[nH]1)CCCC2)c1ccccc1 6.13%
CCOc1ccc(S(=O)(=O)N2CCN(c3c(C)cccc3C)CC2)c2ccccc12 -1.75%
CCOc1ccccc1NC(=O)C1CCN(S(=O)(=O)c2ccccc2)CC1 3.31%
Cc1cc(C)cc(OC(=O)c2snnc2C)c1 -10.5%
COc1cc(NC(=O)Cn2ncc3c([nH]c4ccc(C)cc43)c2=O)cc(OC)c1OC -1.53%
COc1cc(C(=O)Nc2ccc3oc(-c4ccccc4)nc3c2)cc(OC)c1OC 7.82%
O=C1Nc2ccc(S(=O)(=O)Nc3ccccc3O)c3cccc1c23 -13.3%
Cn1c2ccccc2c2c(C(=O)N3CCN(c4ccc(F)cc4)CC3)cn(C3CCCCC3)c(=O)c21 0.652%
COc1cc(Cl)c(C)cc1NC(=O)CSc1ncc(S(=O)(=O)c2ccc(C(C)(C)C)cc2)c(=O)[nH]1 1.73%
COc1ccc(NC(=O)CSc2nnc(-c3cccs3)o2)cc1 -7.95%
CCOc1ccccc1Nc1cc(-c2ccccc2)nc(C)n1 -5.26%
CC(C)CCN(Cc1ccco1)C(=O)c1cc2c(Cl)nc3ccccc3c2s1 -0.015%
Cc1ccc(S(=O)(=O)CC(=O)Nc2sc3c(c2C#N)CCCCC3)cc1 -6.04%
